Reference: publication PMC5290273 (Nature Communications, 2017)
Numbering of substitutions follows the chain as printed. Results are given in words; binding and its absence hold for the method and conditions named. Binding seen in cells or lysates may run through a third protein. Some binding calls cover weakened binding; strength is not graded here. Sequences can lack the tags named with a protein.

Assays:
Assay in all cases: co-IP
[1] = molecular target: T1, FLAG-AFF4 Δ970–1,163 I334D (human) (UniProt Q9UHB7)
T1 sequence: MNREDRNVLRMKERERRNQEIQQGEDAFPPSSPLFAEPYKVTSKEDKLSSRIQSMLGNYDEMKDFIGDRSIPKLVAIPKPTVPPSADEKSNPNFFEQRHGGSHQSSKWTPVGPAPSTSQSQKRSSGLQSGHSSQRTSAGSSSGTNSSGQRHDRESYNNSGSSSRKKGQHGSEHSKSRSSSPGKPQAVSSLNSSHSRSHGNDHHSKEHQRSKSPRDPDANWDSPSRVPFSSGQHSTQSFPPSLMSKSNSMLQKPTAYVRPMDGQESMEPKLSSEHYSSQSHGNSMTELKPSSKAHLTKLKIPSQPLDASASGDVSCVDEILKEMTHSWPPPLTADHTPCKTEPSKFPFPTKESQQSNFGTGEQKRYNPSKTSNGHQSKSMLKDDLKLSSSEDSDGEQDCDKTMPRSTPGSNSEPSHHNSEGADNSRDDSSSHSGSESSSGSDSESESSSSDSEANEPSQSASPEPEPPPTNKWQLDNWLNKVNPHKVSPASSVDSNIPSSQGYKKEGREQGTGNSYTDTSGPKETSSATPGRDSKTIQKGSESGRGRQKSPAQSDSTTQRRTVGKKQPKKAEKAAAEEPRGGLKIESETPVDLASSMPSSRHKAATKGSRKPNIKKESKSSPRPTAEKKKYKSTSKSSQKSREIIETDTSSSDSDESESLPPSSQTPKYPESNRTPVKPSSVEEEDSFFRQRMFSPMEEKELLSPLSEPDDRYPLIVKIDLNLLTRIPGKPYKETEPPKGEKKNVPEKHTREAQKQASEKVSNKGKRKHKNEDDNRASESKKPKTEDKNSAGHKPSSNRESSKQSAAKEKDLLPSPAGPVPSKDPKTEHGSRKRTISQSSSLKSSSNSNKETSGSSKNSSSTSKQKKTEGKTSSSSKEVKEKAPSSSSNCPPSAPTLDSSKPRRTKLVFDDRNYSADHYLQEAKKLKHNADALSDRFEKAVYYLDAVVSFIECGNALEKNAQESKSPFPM

[2] = molecular target: T2, FLAG-AFF4 with double deletion of residues 318–337 and 970–1,163 (human) (UniProt Q9UHB7)
T2 sequence: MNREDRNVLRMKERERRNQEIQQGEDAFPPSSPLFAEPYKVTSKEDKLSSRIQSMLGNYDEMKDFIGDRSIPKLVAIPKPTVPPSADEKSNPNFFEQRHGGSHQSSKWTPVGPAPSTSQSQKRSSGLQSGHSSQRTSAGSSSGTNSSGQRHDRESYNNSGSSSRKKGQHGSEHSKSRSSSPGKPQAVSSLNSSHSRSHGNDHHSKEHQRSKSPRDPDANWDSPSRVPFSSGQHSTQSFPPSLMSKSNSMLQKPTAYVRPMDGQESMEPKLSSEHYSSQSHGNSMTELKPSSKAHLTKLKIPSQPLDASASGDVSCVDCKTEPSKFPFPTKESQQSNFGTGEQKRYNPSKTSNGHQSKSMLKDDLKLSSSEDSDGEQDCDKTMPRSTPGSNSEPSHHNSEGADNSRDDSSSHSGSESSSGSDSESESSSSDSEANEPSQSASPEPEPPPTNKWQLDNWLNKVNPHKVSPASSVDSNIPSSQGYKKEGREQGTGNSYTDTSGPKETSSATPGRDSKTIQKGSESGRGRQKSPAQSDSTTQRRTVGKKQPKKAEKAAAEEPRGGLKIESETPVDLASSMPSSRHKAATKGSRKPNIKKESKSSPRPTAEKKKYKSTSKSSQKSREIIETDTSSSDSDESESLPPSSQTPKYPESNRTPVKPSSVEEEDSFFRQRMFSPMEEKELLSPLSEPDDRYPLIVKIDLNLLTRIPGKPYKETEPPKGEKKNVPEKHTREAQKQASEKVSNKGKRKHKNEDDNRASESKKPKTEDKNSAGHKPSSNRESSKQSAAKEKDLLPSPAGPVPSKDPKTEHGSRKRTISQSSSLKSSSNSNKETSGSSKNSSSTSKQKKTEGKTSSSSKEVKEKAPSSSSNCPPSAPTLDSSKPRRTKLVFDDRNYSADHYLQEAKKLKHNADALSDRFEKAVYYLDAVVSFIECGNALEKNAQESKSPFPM

[3] = molecular target: T3, FLAG-AFF4 Δ970–1,163 F347D (human) (UniProt Q9UHB7)
T3 sequence: T1 sequence with D334I, F347D

B1: ELL1, endogenous (protein, UniProt P55199 1-621)
chain: MAALKEDRSYGLSCGRVSDGSKVSVFHVKLTDSALRAFESYRARQDSVSLRPSIRFQGSQGHISIPQPDCPAEARTFSFYLSNIGRDNPQGSFDCIQQYVSSHGEVHLDCLGSIQDKITVCATDDSYQKARQSMAQAEEETRSRSAIVIKAGGRYLGKKVQFRKPAPGATDAVPSRKRATPINLASAIRKSGASAVSGGSGVSQRPFRDRVLHLLALRPYRKAELLLRLQKDGLTQADKDALDGLLQQVANMSAKDGTCTLQDCMYKDVQKDWPGYSEGDQQLLKRVLVRKLCQPQSTGSLLGDPAASSPPGERGRSASPPQKRLQPPDFIDPLANKKPRISHFTQRAQPAVNGKLGVPNGREALLPTPGPPASTDTLSSSTHLPPRLEPPRAHDPLADVSNDLGHSGRDCEHGEAAAPAPTVRLGLPLLTDCAQPSRPHGSPSRSKPKKKSKKHKDKERAAEDKPRAQLPDCAPATHATPGAPADTPGLNGTCSVSSVPTSTSETPDYLLKYAAISSSEQRQSYKNDFNAEYSEYRDLHARIERITRRFTQLDAQLRQLSQGSEEYETTRGQILQEYRKIKKTNTNYSQEKHRCEYLHSKLAHIKRLIAEYDQRQLQAWP
- binding [1]: no binding
- binding [2]: no binding
- binding [3]: binds
